The other results are listed elsewhere or left out.
Legend:
Assay in all cases: glycan array binding signal (z-score within array); higher = stronger binding
Details in all cases: glycan notation: IUPAC condensed, linker removed
[1] = target: Gal6S(b1-3)[Fuc(a1-4)]GlcNAc(b1-3)Gal(b1-4)Glc
Summary of the method: (§1)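 Arrays were curated from the Consortium for Functional Glycomics database, 3228 in total, and kept only where the protein sequence was available. Binding is expressed as a within-array Z-score. This score was averaged across arrays of the same protein sequence at different concentrations or buffers and across linkers, and negative values can be read as non-binding.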

[2] = target: GalNAc(a1-3)Gal(b1-4)Glc
Summary of the method: as §1

[3] = target: GalNAc(a1-3)GalNAc
Summary of the method: as §1

[4] = target: GalNAc(b1-4)Gal(b1-4)Glc
Summary of the method: as §1

[5] = target: GalNAc(b1-4)Gal3S(b1-4)Glc
Summary of the method: as §1

[6] = target: GalNAc3S(b1-4)Gal3S(b1-4)Glc
Summary of the method: as §1

[7] = target: Glc(a1-2)Glc
Summary of the method: as §1

[8] = target: Glc(a1-3)Man(a1-2)Man(a1-2)Man(a1-3)[Man(a1-2)Man(a1-3)[Man(a1-2)Man(a1-6)]Man(a1-6)]Man(b1-4)GlcNAc(b1-4)GlcNAc
Summary of the method: as §1

[9] = target: Glc(a1-4)Glc
Summary of the method: as §1

[10] = target: Glc(a1-4)Glc(a1-4)Glc
Summary of the method: as §1

[11] = target: Glc(a1-4)Glc(a1-4)Glc(a1-4)Glc
Summary of the method: as §1

[12] = target: Glc(a1-4)Glc(a1-4)Glc(a1-4)Glc(a1-4)Glc
Summary of the method: as §1

[13] = target: Glc(a1-6)Glc
Summary of the method: as §1

[14] = target: Glc(a1-6)Glc(a1-4)Glc(a1-4)Glc
Summary of the method: as §1

[15] = target: Glc(a1-6)Glc(a1-6)Glc
Summary of the method: as §1

[16] = target: Glc(a1-6)Glc(a1-6)Glc(a1-6)Glc
Summary of the method: as §1

[17] = target: Glc(a1-6)Glc(a1-6)Glc(a1-6)Glc(a1-6)Glc
Summary of the method: as §1

[18] = target: Glc(a1-6)Glc(a1-6)Glc(a1-6)Glc(a1-6)Glc(a1-6)Glc
Summary of the method: as §1

[19] = target: Glc(a1-6)Glc(a1-6)Glc(a1-6)Glc(a1-6)Glc(a1-6)Glc(a1-6)Glc
Summary of the method: as §1

[20] = target: Glc(a1-6)Glc(a1-6)Glc(a1-6)Glc(a1-6)Glc(a1-6)Glc(a1-6)Glc(a1-6)Glc
Summary of the method: as §1

[21] = target: Glc(b1-3)Glc(b1-3)Glc(b1-3)Glc(b1-3)Glc
Summary of the method: as §1

[22] = target: Glc(b1-3)Glc(b1-3)Glc(b1-3)Glc(b1-3)Glc(b1-3)Glc
Summary of the method: as §1

[23] = target: Glc(b1-3)Glc(b1-3)Glc(b1-3)Glc(b1-3)Glc(b1-3)Glc(b1-3)Glc(b1-3)Glc
Summary of the method: as §1

[24] = target: Glc(b1-3)Glc(b1-3)Glc(b1-3)Glc(b1-3)Glc(b1-3)Glc(b1-3)Glc(b1-3)Glc(b1-3)Glc(b1-3)Glc(b1-3)Glc
Summary of the method: as §1

[25] = target: Glc(b1-3)Glc(b1-3)Glc(b1-3)Glc(b1-3)Glc(b1-3)Glc(b1-3)Glc(b1-3)Glc(b1-3)Glc(b1-3)Glc(b1-3)Glc(b1-3)Glc(b1-3)Glc
Summary of the method: as §1

[26] = target: Glc(b1-4)Glc(b1-4)Glc(b1-4)Glc(b1-4)Glc
Summary of the method: as §1

[27] = target: Glc(b1-6)Glc(b1-6)Glc(b1-6)Glc(b1-6)Glc(b1-6)Glc(b1-6)Glc
Summary of the method: as §1

[28] = target: Glc(b1-6)Glc(b1-6)Glc(b1-6)Glc(b1-6)Glc(b1-6)Glc(b1-6)Glc(b1-6)Glc(b1-6)Glc(b1-6)Glc
Summary of the method: as §1

[29] = target: Glc(b1-6)Glc(b1-6)Glc(b1-6)Glc(b1-6)Glc(b1-6)Glc(b1-6)Glc(b1-6)Glc(b1-6)Glc(b1-6)Glc(b1-6)Glc
Summary of the method: as §1

[30] = target: Glc(b1-6)Glc(b1-6)Glc(b1-6)Glc(b1-6)Glc(b1-6)Glc(b1-6)Glc(b1-6)Glc(b1-6)Glc(b1-6)Glc(b1-6)Glc(b1-6)Glc(b1-6)Glc
Summary of the method: as §1

[31] = target: GlcA(b1-3)Gal
Summary of the method: as §1

[32] = target: GlcA(b1-3)Gal(b1-3)GlcNAc
Summary of the method: as §1

[33] = target: GlcA(b1-3)Gal(b1-4)GlcNAc(b1-3)Gal(b1-4)Glc
Summary of the method: as §1

[34] = target: GlcA(b1-3)Gal(b1-4)GlcNAc(b1-3)Gal(b1-4)GlcNAc(b1-3)Gal(b1-4)Glc
Summary of the method: as §1

[35] = target: GlcA(b1-3)GlcNAc(b1-4)GlcA(b1-3)GlcNAc
Summary of the method: as §1

[36] = target: GlcA(b1-3)GlcNAc(b1-4)GlcA(b1-3)GlcNAc(b1-4)GlcA(b1-3)GlcNAc(b1-4)GlcA(b1-3)GlcNAc(b1-4)GlcA(b1-3)GlcNAc(b1-4)GlcA(b1-3)GlcNAc(b1-4)GlcA(b1-3)GlcNAc
Summary of the method: as §1

[37] = target: GlcA3S(b1-3)Gal
Summary of the method: as §1

[38] = target: GlcA3S(b1-3)Gal(b1-4)GlcNAc(b1-3)Gal(b1-4)Glc
Summary of the method: as §1

B1: CLECSF8 (Mus musculus), Q9Z2H6 (protein)
chain: HYFLRWTRGSVVKLSDYHTRVTCIREEPQPGATGGTWTCCPVSWRAFQSNCYFPLNDNQTWHESERNCSGMSSHLVTINTEAEQNFVTQLLDKRFSYFLGLADENVEGQWQWVDKTPFNPHTVFWEKGESNDFMEEDCVVLVHVHEKWVWNDFPCHFEVRRICKLPGITFNWKPSK
[1]
  glycan array binding signal (z-score): -0.424
[2]
  glycan array binding signal (z-score): -0.424
[3]
  glycan array binding signal (z-score): -0.424
[4]
  glycan array binding signal (z-score): -0.424
[5]
  glycan array binding signal (z-score): -0.424
[6]
  glycan array binding signal (z-score): -0.424
[7]
  glycan array binding signal (z-score): 0.699
[8]
  glycan array binding signal (z-score): -0.424
[9]
  glycan array binding signal (z-score): 0.06
[10]
  glycan array binding signal (z-score): 0.639
[11]
  glycan array binding signal (z-score): 1.73
[12]
  glycan array binding signal (z-score): -0.424
[13]
  glycan array binding signal (z-score): 0.004
[14]
  glycan array binding signal (z-score): 3.29
[15]
  glycan array binding signal (z-score): -0.424
[16]
  glycan array binding signal (z-score): 0.775
[17]
  glycan array binding signal (z-score): 0.858
[18]
  glycan array binding signal (z-score): 1.13
[19]
  glycan array binding signal (z-score): 0.034
[20]
  glycan array binding signal (z-score): 1.5
[21]
  glycan array binding signal (z-score): 0.404
[22]
  glycan array binding signal (z-score): 0.858
[23]
  glycan array binding signal (z-score): -0.424
[24]
  glycan array binding signal (z-score): -0.424
[25]
  glycan array binding signal (z-score): -0.424
[26]
  glycan array binding signal (z-score): 1.01
[27]
  glycan array binding signal (z-score): 0.673
[28]
  glycan array binding signal (z-score): -0.424
[29]
  glycan array binding signal (z-score): -0.424
[30]
  glycan array binding signal (z-score): 2.26
[31]
  glycan array binding signal (z-score): 0.975
[32]
  glycan array binding signal (z-score): -0.424
[33]
  glycan array binding signal (z-score): 3.5
[34]
  glycan array binding signal (z-score): 1
[35]
  glycan array binding signal (z-score): 0.087
[36]
  glycan array binding signal (z-score): 0.54
[37]
  glycan array binding signal (z-score): -0.424
[38]
  glycan array binding signal (z-score): -0.424

Reference: the supplement of paper PMC8728848
